These are enrichments in a pooled selection; single values are uncertain.
Test system: NB7
Assay: fold depletion of shRNA, plasmid library share / infected cells without Dox share (9 days) (ratio); higher = more depleted after infection (more toxic, leaky expression from a Tet-inducible vector; NB7 is a neuroblastoma line without caspase-8)
Method: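 Pooled lethality screen in NB7 neuroblastoma cells infected with Dox-inducible pTIP shRNA libraries. The libraries tile every 21-mer of the Venus, CD95L or CD95 ORF / 3'UTR; each hairpin is the 21-nt sense sequence + CTCGAG loop + antisense. Cells were cultured 9 days with or without 100 ng/ml Dox. shRNA representation was measured by deep sequencing of the genomic inserts, normalised to the total reads per subpool and averaged over technical replicates. Fold depletion is the plasmid library share / infected cells without Dox share (mean of 2 biological replicates), and the -Dox/+Dox share ratio is the mean of 4 replicate pairings; higher values mean more depletion (toxicity).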

[1] = shRNA pool: CD95 ORF + CD95 3'UTR + Venus libraries
[2] = shRNA pool: CD95L ORF + CD95L 3'UTR + Venus libraries
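Also: shRNA barcodes quantified by deep sequencing of PCR amplicons from cellular DNA, counts expressed as percent of each subpool, ratio averaged over two biological duplicates.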

Sequence: ACCCAGAATACCAAGTGCAGA
- fold depletion of shRNA [1]: 2.1

Sequence: ACCCATATCCCCAGATCTACT
- fold depletion of shRNA [2]: 0.931

Sequence: ACCCATGTTTGCAATCAAAGA
- fold depletion of shRNA [1]: 1.12

Sequence: ACCCCAACGAGAAGCGCGATC
- fold depletion of shRNA [2]: 3.09
- fold depletion of shRNA [1]: 2.1

Sequence: ACCCCACTCTATGAATCAATA
- fold depletion of shRNA [1]: 1.59

Sequence: ACCCCCAAACATGGAAATATC
- fold depletion of shRNA [1]: 0.802

Sequence: ACCCCCAAGTTTCTAAGATTT
- fold depletion of shRNA [1]: 0.752

Sequence: ACCCCCATCGGCGACGGCCCC
- fold depletion of shRNA [2]: 0.648
- fold depletion of shRNA [1]: 0.459

Sequence: ACCCCCGAAAATGTTCAATAA
- fold depletion of shRNA [1]: 2.32

Sequence: ACCCCCTGAAAAAAAGGAGCT
- fold depletion of shRNA [2]: 3.29

Sequence: ACCCCGACCACATGAAGCAGC
- fold depletion of shRNA [2]: 1.25
- fold depletion of shRNA [1]: 1.8

Sequence: ACCCCTGAAGAAGAGAGGGAA
- fold depletion of shRNA [2]: 1.46

Sequence: ACCCGCGCCGAGGTGAAGTTC
- fold depletion of shRNA [2]: 0.744
- fold depletion of shRNA [1]: 0.867

Sequence: ACCCGGACCCAGAATACCAAG
- fold depletion of shRNA [1]: 1.38

Sequence: ACCCTCCTACCTCTGGTTCTT
- fold depletion of shRNA [1]: 2.49

Sequence: ACCCTCGTGACCACCCTGGGC
- fold depletion of shRNA [2]: 0.777
- fold depletion of shRNA [1]: 0.964

Sequence: ACCCTGAAGCTGATCTGCACC
- fold depletion of shRNA [1]: 1.83

Sequence: ACCCTGGGCTACGGCCTGCAG
- fold depletion of shRNA [2]: 1.03
- fold depletion of shRNA [1]: 0.557

Sequence: ACCCTGGTGAACCGCATCGAG
- fold depletion of shRNA [2]: 1.14
- fold depletion of shRNA [1]: 1.29

Sequence: ACCGAGAATGTTGTATTCAGT
- fold depletion of shRNA [2]: 3.11

Sequence: ACCGCATCGAGCTGAAGGGCA
- fold depletion of shRNA [2]: 1.28
- fold depletion of shRNA [1]: 0.84

Sequence: ACCGCCACCGCCACCACTACC
- fold depletion of shRNA [2]: 3.34

Sequence: ACCGCCGACAAGCAGAAGAAC
- fold depletion of shRNA [2]: 1.09
- fold depletion of shRNA [1]: 1.05

Sequence: ACCGCCGCCGGGATCACTCTC
- fold depletion of shRNA [2]: 1.37
- fold depletion of shRNA [1]: 1.14

Sequence: ACCGGCAAGCTGCCCGTGCCC
- fold depletion of shRNA [2]: 1.32
- fold depletion of shRNA [1]: 1.11

Sequence: ACCGGGGTGGTGCCCATCCTG
- fold depletion of shRNA [2]: 1.05
- fold depletion of shRNA [1]: 0.553

Sequence: ACCTAAAGAACTTCCATTTAT
- fold depletion of shRNA [1]: 0.781

Sequence: ACCTAATGTTTATGAGCCAGA
- fold depletion of shRNA [2]: 1.78

Sequence: ACCTACGGCAAGCTGACCCTG
- fold depletion of shRNA [1]: 0.936

Sequence: ACCTACTTCTTTCTCAGGCAT
- fold depletion of shRNA [1]: 1.48

Sequence: ACCTATGGAATTGTCCTGCTT
- fold depletion of shRNA [2]: 1.99

Sequence: ACCTCAAGGGGGACTGTCTTT
- fold depletion of shRNA [2]: 2.32

Sequence: ACCTCCGCCGCCGCCGCCACC
- fold depletion of shRNA [2]: 0.309

Sequence: ACCTCTCAAGGTGGGCCTTGC
- fold depletion of shRNA [2]: 0.38

Sequence: ACCTCTCCATTTTTGCCTTGG
- fold depletion of shRNA [1]: 8.71

Sequence: ACCTCTGATAATTCTAGAGAT
- fold depletion of shRNA [1]: 1.08

Sequence: ACCTCTGGTTCTTACGTCTGT
- fold depletion of shRNA [1]: 4.41

Sequence: ACCTCTGTGCCCAGAAGGCCT
- fold depletion of shRNA [2]: 4.6

Sequence: ACCTGAGCTACCAGTCCGCCC
- fold depletion of shRNA [2]: 1.47
- fold depletion of shRNA [1]: 1.34

Sequence: ACCTGAGGATTTAAGGGATGG
- fold depletion of shRNA [2]: 1.49

Sequence: ACCTGCTACAAATGGCAGCTT
- fold depletion of shRNA [1]: 1.2

Sequence: ACCTGGGGGCAGTGTTCAATC
- fold depletion of shRNA [2]: 8.25

Sequence: ACCTTGAGACCACAGGGTTCA
- fold depletion of shRNA [2]: 0.995

Sequence: ACCTTTGCACAGTTTATTGGT
- fold depletion of shRNA [1]: 1.6

Sequence: ACCTTTTAACTCACCTCTCAA
- fold depletion of shRNA [2]: 1.78

Sequence: ACCTTTTGCTGAAATATCAGT
- fold depletion of shRNA [1]: 1.21

Sequence: ACGACGGCAACTACAAGACCC
- fold depletion of shRNA [2]: 0.646
- fold depletion of shRNA [1]: 0.699

Sequence: ACGACTTCTTCAAGTCCGCCA
- fold depletion of shRNA [2]: 2.63
- fold depletion of shRNA [1]: 2.3

Sequence: ACGAGAAGCGCGATCACATGG
- fold depletion of shRNA [2]: 0.841
- fold depletion of shRNA [1]: 1.12

Sequence: ACGGAAGAACATAGAACTCTG
- fold depletion of shRNA [2]: 0.54

Sequence: ACGGCAACATCCTGGGGCACA
- fold depletion of shRNA [2]: 0.992
- fold depletion of shRNA [1]: 0.952

Sequence: ACGGCAACTACAAGACCCGCG
- fold depletion of shRNA [2]: 1.4
- fold depletion of shRNA [1]: 1.38

Sequence: ACGGCAAGCTGACCCTGAAGC
- fold depletion of shRNA [2]: 0.54
- fold depletion of shRNA [1]: 0.634

Sequence: ACGGCATCAAGGCCAACTTCA
- fold depletion of shRNA [2]: 2.25
- fold depletion of shRNA [1]: 1.28

Sequence: ACGGCCACAAGTTCAGCGTGT
- fold depletion of shRNA [2]: 0.912
- fold depletion of shRNA [1]: 0.661

Sequence: ACGGCCCCGTGCTGCTGCCCG
- fold depletion of shRNA [2]: 0.612
- fold depletion of shRNA [1]: 0.353

Sequence: ACGGCCTGCAGTGCTTCGCCC
- fold depletion of shRNA [2]: 0.911
- fold depletion of shRNA [1]: 0.799

Sequence: ACGGCGACGTAAACGGCCACA
- fold depletion of shRNA [2]: 0.831
- fold depletion of shRNA [1]: 1.08

Sequence: ACGGCGGCGTGCAGCTCGCCG
- fold depletion of shRNA [2]: 0.604
- fold depletion of shRNA [1]: 0.649

Source: the supplement of paper PMC5655136
